Results taken from publication PMC3903633.
Results are given in words; binding and its absence hold for the method and conditions named. For part of these data: Binding seen in cells or lysates may run through a third protein. Some binding calls cover weakened binding; strength is not graded here. Where a sequence is shown, tags or fusion partners need not be part of it.

Experiments:
[1] = molecular target: Pathogen and Circadian Controlled 1 (PCC1) fused to the activation domain or to the DNA binding domain of GAL4 (Arabidopsis thaliana) (UniProt Q94C26); test: two-hybrid; AD and BD fusions of GAL4 (pPC86, pDBLeu) in S. cerevisiae Mav203; growth in minimal medium -Leu -Trp -His
[2] = molecular target: T1, PCC1 fused to the C-terminal or the N-terminal half of YFP (Arabidopsis thaliana) (UniProt Q94C26); test: split reporter; BiFC: pairs of proteins each fused to half of YFP (pYFC43, pYFN43), transient co-transformation of Nicotiana benthamiana leaves by agroinfiltration; confocal microscopy
T1 sequence: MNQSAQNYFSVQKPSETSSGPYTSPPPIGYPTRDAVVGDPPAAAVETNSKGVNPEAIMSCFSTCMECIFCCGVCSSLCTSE

[3] = molecular target: T2, PCC1 fused to HA, GFP or c-myc tags (Arabidopsis thaliana) (UniProt Q94C26); test: co-IP; Nicotiana benthamiana leaves co-transformed with PCC1-HA and GFP- or c-myc-tagged constructs; total protein extracts in TBS with protease inhibitors and detergent; IP with anti-HA magnetic beads, Western blot with anti-GFP or anti-c-myc
T2 sequence: T1 sequence

[4] = molecular target: T2, PCC1 fused to HA, GFP or c-myc tags (Arabidopsis thaliana); test: co-IP; reverse IP: Nicotiana benthamiana leaves co-transformed with PCC1-HA and GFP-tagged constructs; IP with anti-GFP magnetic beads, Western blot with anti-HA
[5] = molecular target: T3, GFP-Δ177PCC1, truncated PCC1 lacking the C-terminus, fused to GFP (Arabidopsis thaliana) (UniProt Q94C26); test: as above
T3 sequence: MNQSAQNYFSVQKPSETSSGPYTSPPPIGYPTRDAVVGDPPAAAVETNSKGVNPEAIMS

B1: Pathogen and Circadian Controlled 1 (PCC1) fused to the activation domain or to the DNA binding domain of GAL4 (protein, UniProt Q94C26 1-81)
chain: T1 sequence
binding [1]: binds

B2: PCC1 fused to the C-terminal or the N-terminal half of YFP (protein, UniProt Q94C26 1-81)
chain: T1 sequence
binding [2]: binds

B3: PCC1 fused to HA, GFP or c-myc tags (protein, UniProt Q94C26 1-81)
chain: T1 sequence
binding [3]: binds
binding [4]: binds
binding [5]: no binding

B4: GFP-Δ177PCC1, truncated PCC1 lacking the C-terminus, fused to GFP (domain or fragment, UniProt Q94C26 1-59)
chain: T3 sequence
binding [3]: no binding
